Measurements as given in PubChem BioAssay AID1345082 (National Center for Advancing Translational Sciences (NCATS), 2018).
The whole screen tested about 94,000 compounds, of which about 4,000 (4.3%) were called active. Inconclusive means that the source gave no clear call. Such entries were picked first, then a sample of the others. Calls come from the whole dose curve; as a rule, active = well fitted inhibition curve with a large enough effect; inconclusive = small, poorly fitted or top-dose-only effect; inactive = no such curve, though single readings can be large or run the other way. Potencies beside an inconclusive call are fits to weak or partial responses and may not hold up.
Potency is the fitted concentration of half-maximal effect; tags give direction and shape of the fitted curve.

Test: Cytotoxic Profiling in NIH 3T3 Cell Line of Diverse Libraries Using Quantitative High-Throughput Screening; note: nearly all actives have a fitted effect of over 55% in size
Conditions: NIH 3T3 viability, CellTiter-Glo ATP luminescence, 48-72 h; series mostly up to 96.7 µM
In short: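 NIH 3T3 cells at 400 cells/well received 23 nL of compound by pintool and were incubated 48 or 72 h at 37 °C. Viability was read as ATP-coupled CellTiter-Glo luminescence.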
In the case of CCc1nc(-c2c3n(c(=O)n(CC(=O)Nc4ccc(OC)cc4)c2=O)CCCCC3)no1, the Potency is reported as “inactive”. With CNC(=O)[C@H]1CN(C(=O)OCC(C)C)[C@]2(C)C(=O)N(CCOC)c3ccccc3[C@H]12 the Potency was “inactive”. In the case of CNCC(=O)N1CCCC(c2cc(N3CCOCC3)nc(C)n2)C1 (centres undefined), the Potency is reported as “inactive”. In the case of O=C1CCN(Cc2ccncc2)CCCC(C(=O)NCCc2c[nH]c3ccccc23)CCN1 (centres undefined), the Potency is reported as “inactive”. For N#Cc1ccc(C(=O)Nc2ccc([C@@H](O)[C@H]3COCC(=O)N3Cc3ccc(F)cc3)cc2)cc1, the Potency was “inactive”. With COCCNC(=O)Cc1c[nH]c2ncc(-c3cccnc3OC)cc12 the Potency was inconclusive: 56.2 µM [inhibitor, partial curve, poor fit]. For COc1cccc(C(=O)Nc2ccc3c(c2)CN(Cc2ccccc2F)C(=O)CO3)c1, the Potency was inconclusive: 44.7 µM [inhibitor, partial curve, poor fit]. For Cc1cnc(C)c(N2CCC(Oc3ccc4c(cnn4CCC(=O)O)c3)CC2)n1, the Potency was inconclusive: 63.1 µM [inhibitor, partial curve, poor fit]. With COc1ncccc1-c1nccn2c(C3CN(Cc4ccccc4O)C3)ncc12 the Potency was inconclusive: 100 µM [inhibitor, partial curve, poor fit]. In the case of COc1ccc(-c2cc(N3CCC(NC(=O)c4ccc(Br)cc4)C3)n[nH]2)cc1 (centres undefined), the Potency is reported as inconclusive: 50.1 µM [inhibitor, partial curve, poor fit]. For Cn1nc(-c2ccncc2)cc1NC(=O)Cc1ccccc1, the Potency was inconclusive: 89.1 µM [inhibitor, partial curve, poor fit]. For COCc1noc([C@@H]2CC(F)(F)CN2C(=O)CC(C)(C)C)n1, the Potency was “inactive”. With O=C1CC2(CCN(C(=O)c3ccc4c(c3)OCO4)CC2)Oc2ccccc21 the Potency was inconclusive: 50.1 µM [inhibitor, partial curve, poor fit]. For Cc1nc2ccc(C(=O)N3CCCn4nc(CO)cc4C3)cc2o1, the Potency was “inactive”. In the case of CC(C)NC(=O)NC1CCN(c2ccc3nnc(-c4ccccc4)n3n2)C1 (centres undefined), the Potency is reported as inconclusive: 70.8 µM [inhibitor, partial curve, poor fit]. In the case of O=C(CCC1CCN(S(=O)(=O)N2CCCC2)CC1)Nc1ccccc1Cl, the Potency is reported as inconclusive: 56.2 µM [inhibitor, partial curve, poor fit]. For CC(=O)N1CC2(Cc3ccccc31)CN(C(=O)c1cccc(Cl)c1)C2, the Potency was “inactive”. For Cn1ncc2c(C(=O)NCC3CC3)cc(-c3ccccc3C(F)(F)F)nc21, the Potency was inconclusive: 50.1 µM [inhibitor, partial curve, poor fit]. With CC1(c2ccccc2)N(Cc2ccccc2)C(=O)OC12CCN(C(=O)CN1CCOCC1)CC2 (centres undefined) the Potency was active: 14.1 µM. For COc1ccc(-c2nc(C3CC3)nc3c2CCN(C(=O)c2ccc(C(F)(F)F)cc2)CC3)cc1, the Potency was inconclusive: 15.8 µM [inhibitor, full curve, poor fit]. With Cc1ccc(-n2nc(C)c([C@H]3C=C[C@@H](OC(=O)Nc4cccc(F)c4)C3)c2C)cc1Cl the Potency was inconclusive: 44.7 µM [inhibitor, partial curve, poor fit]. For COCCCn1c(=O)c(C(=O)N2CCN(C(=O)c3cccc(Cl)c3)CC2)nc2cccnc21, the Potency was “inactive”. In the case of Cn1ccc(NC(=O)[C@@H]2C[C@@H](c3ccc(F)cc3)N(Cc3ccccc3)C2)n1, the Potency is reported as inconclusive: 89.1 µM [inhibitor, partial curve, poor fit]. For Cc1ccc(-c2nccn3cc(C(=O)N4CCN(c5ccccn5)CC4)nc23)cc1, the Potency was inconclusive: 50.1 µM [inhibitor, partial curve, poor fit]. In the case of CCOC(=O)c1ccc(NC(=O)c2ccc3c(c2)N(C)C2CCCCN2C3=O)cc1 (centres undefined), the Potency is reported as inconclusive: 44.7 µM [inhibitor, partial curve, poor fit]. For Cc1noc(-c2cn(C3CCN(C(=O)c4cccc(C(F)(F)F)c4)CC3)nn2)n1, the Potency was inconclusive: 10 µM [inhibitor, full curve]. For CC(C)c1noc(C2CCCN(C(=O)c3ccoc3)CCC(=O)NCC2)n1 (centres undefined), the Potency was “inactive”. With CN1CCCC2(Cc3ccccc3CN(C(=O)c3ccc(Cl)cc3)C2)C1 (centres undefined) the Potency was “inactive”. For CNC(=O)[C@@H]1CN(C(=O)c2cccc(Br)c2)C[C@H]1CO, the Potency was “inactive”. With O=C(NCC(=O)N1CCC(Cc2ccccc2)CC1)c1ccc(-c2cnc3ccccc3c2)cc1 the Potency was inconclusive: 10 µM [inhibitor, full curve, poor fit]. For COc1cc(C(C(=O)O)N(C)Cc2c(C)nn(C)c2C)ccc1N (centres undefined), the Potency was “inactive”. In the case of COc1ccc(S(=O)(=O)N2CCc3c(C(=O)NCCc4cccs4)cccc32)cc1, the Potency is reported as “inactive”. In the case of CN1c2cc(C(=O)Nc3ccc(OC(F)(F)F)cc3)ccc2C(=O)N2CCCCCC21 (centres undefined), the Potency is reported as inconclusive: 25.1 µM [inhibitor, partial curve]. In the case of C[S+](=O)([O-])N1CCC(C(=O)N2CCCC(c3nc4ccncc4[nH]3)C2)CC1 (centres undefined), the Potency is reported as “inactive”. In the case of CC(C)n1cc(CN2CC[C@@H](c3ccc4ccccc4c3)[C@H](O)C2)cn1, the Potency is reported as inconclusive: 50.1 µM [inhibitor, partial curve, poor fit]. In the case of COCc1cc(=O)n(CC(=O)Nc2cccc(C(F)(F)F)c2)c(N2CCOCC2)n1, the Potency is reported as “inactive”. For O=C(NCc1cccc(C(F)(F)F)c1)C1CCCN(Cc2cccc(-c3ccsc3)c2)C1 (centres undefined), the Potency was active: 12.6 µM. For O=C1[C@@H]2C[C@@H](CN2C2CCOCC2)Oc2ccccc2N1Cc1ccccc1, the Potency was inconclusive: 39.8 µM [inhibitor, full curve, poor fit]. With CN1CCC(NC[C@H]2Cn3c(-c4ccc(F)cc4)cnc3CO2)CC1 the Potency was inconclusive: 79.4 µM [inhibitor, partial curve, poor fit]. For O=C(c1ccc(N2CCCC(O)C2)nc1)N1CCC(CCc2ccccc2)CC1 (centres undefined), the Potency was inconclusive: 50.1 µM [inhibitor, partial curve, poor fit]. With O=C(c1c(OCC2CC2)cc(=O)n2c1CCCCC2)N1CCOCC1 the Potency was inconclusive: 70.8 µM [inhibitor, single point]. With c1ccc(CN2CCC[C@H]2c2nc(-c3ccc(OC4CCCCC4)nc3)no2)nc1 the Potency was active: 44.7 µM. With COc1ccc(-c2ccnc(N[C@H]3CO[C@H]4[C@@H]3OC[C@@H]4NC(=O)NCc3ccccc3)n2)cc1 the Potency was inconclusive: 39.8 µM [inhibitor, full curve, poor fit]. In the case of COc1ccc(-n2nc3n(c2=O)CCN(Cc2ccc(F)cc2)C3)cc1, the Potency is reported as inconclusive: 17.8 µM [inhibitor, full curve, poor fit]. In the case of CC(NC(=O)C1CCN(c2cc(C(F)(F)F)ncn2)CC1)c1ccc(F)cc1 (centres undefined), the Potency is reported as inconclusive: 25.1 µM [inhibitor, partial curve, poor fit]. For COc1ccc(OC)c(CN2CC[C@@H]3OCC(=O)N(Cc4ccccc4)[C@H]3CC2)c1, the Potency was inconclusive: 89.1 µM [inhibitor, partial curve]. In the case of COc1ccccc1-c1cccc(CN2CCC(N[S+](=O)([O-])c3c(C)noc3C)CC2)c1, the Potency is reported as active: 35.5 µM. For Cc1[nH]cnc1CN1CCCC(c2nnc(CN3CCC(O)CC3)n2C)C1 (centres undefined), the Potency was inconclusive: 100 µM [inhibitor, single point]. For Cc1ccsc1C(=O)N1CCC2(CC1)OC(=NCCc1ccccc1)NC2=O, the Potency was “inactive”. With COc1cc(NC(=O)CN2C(=O)NC3(CCC(C(C)(C)C)CC3)C2=O)cc(OC)c1OC (centres undefined) the Potency was “inactive”. For COCc1ccc(C(=O)N2CCc3[nH]nc(-c4ccccc4F)c3C2)s1, the Potency was inconclusive: 70.8 µM [inhibitor, single point]. With Cc1noc(C)c1-c1cc2c(c(-c3ccccc3O)c1)C(=O)N(C)C2=O the Potency was inconclusive: 44.7 µM [inhibitor, partial curve]. With CCN(CC)C(=O)CC[C@@H]1CNC(=O)[C@@H]2C[C@H](NCc3ccc(F)cc3)CN12 the Potency was “inactive”. For Cc1ccc(-c2ccccc2CN2CCC(C(=O)N3CCCC3)CC2)cc1Cl, the Potency was inconclusive: 44.7 µM [inhibitor, partial curve, poor fit]. For COc1ccc2[nH]cc(CCNC(=O)C3Cn4cccc4C(=O)N3Cc3cccnc3)c2c1 (centres undefined), the Potency was inconclusive: 50.1 µM [inhibitor, partial curve, poor fit]. With COc1ccc(CN2CC(Oc3ccccc3C(=O)NCc3ccccc3)C2)c(OC)c1 the Potency was inconclusive: 44.7 µM [inhibitor, partial curve, poor fit]. With Cc1nonc1CN1CCN(c2cc(C3CC(N)C3)nc(N)n2)CC1 (centres undefined) the Potency was “inactive”. In the case of COCCc1noc(C2CN(C(=O)CCC3CCCC3)C2)n1, the Potency is reported as inconclusive: 79.4 µM [inhibitor, single point]. For COCCCn1c(=O)c(C(=O)N2CCN(c3ncccn3)CC2)nc2cccnc21, the Potency was “inactive”. In the case of CCOC(=O)C(Cc1cc(N2CCN(C(=O)c3c(Cl)cccc3Cl)CC2)ccc1Cl)OC (centres undefined), the Potency is reported as inconclusive: 50.1 µM [inhibitor, partial curve, poor fit]. For CCCCNC(=O)c1cccc(-c2cc(N3CCN(C)CC3)nc(N)n2)c1, the Potency was “inactive”. With Cc1ccc(NC(=O)N2CCC(CCNC(=O)c3n[nH]c4ccccc34)CC2)cc1F the Potency was inconclusive: 50.1 µM [inhibitor, partial curve, poor fit]. With COCCNc1cc(-c2noc([C@@H]3CCCN3C3CCN(C(C)=O)CC3)n2)ccn1 the Potency was “inactive”. With COc1cccc(CNC(=O)c2cc(-c3cc(Cl)cc(Cl)c3)nc3c2cnn3C)c1 the Potency was inconclusive: 56.2 µM [inhibitor, partial curve, poor fit].
